# Measurements taken from the BET-seq Pho4 binding data (Le et al. 2018).
# The other results are listed elsewhere or left out. These are noisy estimates, calculated here from bound and input reads.
# Target: T1, Pho4 (S. cerevisiae) (UniProt P07270)
# T1 sequence: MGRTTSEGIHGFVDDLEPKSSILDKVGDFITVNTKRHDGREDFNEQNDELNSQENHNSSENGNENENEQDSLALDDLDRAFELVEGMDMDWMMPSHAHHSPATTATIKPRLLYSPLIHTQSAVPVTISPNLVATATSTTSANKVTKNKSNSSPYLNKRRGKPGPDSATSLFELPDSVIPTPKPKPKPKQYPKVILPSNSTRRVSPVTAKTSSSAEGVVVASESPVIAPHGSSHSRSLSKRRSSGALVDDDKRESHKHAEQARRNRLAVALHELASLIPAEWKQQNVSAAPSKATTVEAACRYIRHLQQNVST
# Test: relative binding free energy (BET-seq); higher = weaker binding
# Conditions: reference: library average
row,Sequence,relative binding free energy [kcal/mol]
1,CGTGGCACGTGTATTG,-0.05
2,GTGTCCACGTGTTAAT,0.15
3,TGTATCACGTGATGGT,0.28
4,ATTGGCACGTGCAAGT,-0.16
5,GTTTGCACGTGTCAGG,0.04
6,TTATTCACGTGTGATC,0.32
7,TAGTGCACGTGGGGTT,-0.14
8,GGGGACACGTGGATCT,0.1
9,ATGTGCACGTGTTTGA,-0.09
10,GGGGCCACGTGGAGAG,-0.08
11,CTTTACACGTGTTATA,0.1
12,GCTGTCACGTGTGCTT,0.22
13,CTATTCACGTGATAGT,0.21
14,TCAGTCACGTGTTAGG,0.06
15,GTGTTCACGTGTGGTC,0.27
16,TGGCGCACGTGTTTGC,-0.1
17,AGGTGCACGTGGTTAT,-0.13
18,GGTAGCACGTGGGTCA,-0.26
19,GTTGGCACGTGGTGCG,-0.15
20,ATTAGCACGTGTTCTG,-0.12
21,GAGAACACGTGTTATG,0.18
22,GACTTCACGTGAGTGT,0.49
23,GTTATCACGTGGCGGG,0.09
24,ATTGGCACGTGTACGA,-0.12
25,TGGTTCACGTGAATAG,0.38
26,TTGTTCACGTGGGTGT,0.25

row,Sequence,relative binding free energy [kcal/mol]
1,TAGGACACGTGTACTG,0.11
2,CATTTCACGTGGTTAA,0.27
3,GATTACACGTGGGTAT,0.09
4,AGGGGCACGTGAGCTG,0.24
5,ATGGGCACGTGGTTAG,-0.26
6,TGTTGCACGTGGGGTC,-0.1
7,CTGTGCACGTGGAAGT,-0.18
8,AGTATCACGTGAGTAG,0.28
9,GAGAGCACGTGGCGGT,-0.22
10,GGCGTCACGTGAATTT,0.31
11,ATTTGCACGTGGTCAT,0
12,TGATGCACGTGTGATC,0.05
13,TATGGCACGTGAAGGC,0.28
14,GTTTGCACGTGTGTTG,0.04
15,CTGTGCACGTGGCGTT,-0.17
16,TTCGTCACGTGAAGAT,0.33
17,AAAGGCACGTGGCGGG,-0.12
18,TGCTGCACGTGTGAAT,0.09
19,ATCGTCACGTGTGTGA,0.22
20,TGGGGCACGTGCTGTG,-0.17
21,GTTCTCACGTGTGATT,0.36
22,GCTCGCACGTGGTGGG,-0.05
23,ATGTGCACGTGTTATT,-0.11
24,TGGGGCACGTGGACGC,-0.18
25,CTATGCACGTGTGGTC,0.01
26,CATATCACGTGGTAGT,0.06

row,Sequence,relative binding free energy [kcal/mol]
1,AGGTTCACGTGTTGCA,0.17
2,TTAAGCACGTGAGTAG,0.15
3,ATGAGCACGTGGGGTC,-0.24
4,AGACGCACGTGACGGG,0.1
5,CTGGTCACGTGAGTCA,0.36
6,GAGCACACGTGTGTGG,0.14
7,AATTGCACGTGGGTAG,-0.15
8,AGTATCACGTGCGGTG,0.09
9,GGTAACACGTGTTAGA,-0.12
10,GAGGTCACGTGTAAGT,0.15
11,ATATACACGTGGCGTT,-0.14
12,TGGCTCACGTGGTTAT,0.22
13,TTGTGCACGTGCATAT,-0.22
14,AATTGCACGTGTGACT,0.14
15,TCAGGCACGTGAATGG,0.18
16,ACTAGCACGTGTGGGT,-0.13
17,GGTCGCACGTGTAGAG,0.01
18,TGCGTCACGTGTGTAA,0.11
19,ATTAACACGTGTGCAG,0.09
20,GATGGCACGTGATAGT,0
21,GGCTACACGTGGGTGG,0.03
22,TGTGTCACGTGTCGAT,0.1
23,TAGTGCACGTGGGCGC,-0.18
24,TAGGGCACGTGAGACT,0.1
25,ATGGTCACGTGGGGGT,-0.01
26,GTTAACACGTGTTCGG,0.11

row,Sequence,relative binding free energy [kcal/mol]
1,TCTTACACGTGCGTGT,-0.01
2,TGTTACACGTGGGCGG,0.03
3,ACTTGCACGTGATTTG,0.06
4,CGGGGCACGTGGGGCA,-0.23
5,TGCGTCACGTGAGTTT,0.33
6,GGTATCACGTGGCTGT,0.09
7,GGCGGCACGTGAGGCT,0.03
8,TTGTTCACGTGCGGTT,0.25
9,CTGTTCACGTGAGGTT,0.39
10,AATGTCACGTGTGTGT,0.12
11,TAGTACACGTGTGCGG,0.04
12,GCATTCACGTGGGCTT,0.3
13,TATTTCACGTGAGGTC,0.32
14,GTTAACACGTGATGGG,0.2
15,GTCGTCACGTGGAGTT,0.21
16,GTAGACACGTGTTGGG,0.08
17,TGTGTCACGTGCGGGT,-0.03
18,GAGCGCACGTGGCTGG,-0.19
19,GCGGTCACGTGGGAGT,-0.07
20,TACTTCACGTGTCAGG,0.46
21,GGAGGCACGTGTTGTC,-0.1
22,GTTTCCACGTGAATGG,0.35
23,GCAGTCACGTGAGGTT,0.5
24,TTAATCACGTGGATTC,0.26
25,TATCACACGTGGAGTT,0.12
26,GTTATCACGTGGGCGA,-0.02

row,Sequence,relative binding free energy [kcal/mol]
1,GGGGGCACGTGACTAT,0.03
2,GAGGTCACGTGGCTTT,0.02
3,GGTAGCACGTGTAGGA,0.04
4,TTTGACACGTGACGGT,0.12
5,TGGATCACGTGGTCTA,0.02
6,ATGGACACGTGAGAAT,0.37
7,TGGTACACGTGATGGC,0.19
8,TAGGACACGTGCTTGT,0.11
9,ATTGACACGTGTAAGA,0.17
10,AAGGTCACGTGAGGGA,0.27
11,TATTTCACGTGAGGAC,0.37
12,GCTATCACGTGTAGGT,0.34
13,GAGTTCACGTGGCTGT,0.34
14,GCATGCACGTGAGTGT,0.07
15,GATTACACGTGTGGGA,0.45
16,TTTAGCACGTGTACGG,-0.08
17,AGAGTCACGTGGCGGT,-0.05
18,GAAATCACGTGGGGCA,0.34
19,GTGTCCACGTGTGATG,0.13
20,TTGTACACGTGCTTTA,-0.08
21,AGCATCACGTGGCGGG,0.08
22,AAGGTCACGTGGTTAA,-0.01
23,TTTTTCACGTGTTGTA,0.29
24,AAGTTCACGTGGCAGG,0.17
25,AGGGTCACGTGATAGA,0.26
26,TGTGCCACGTGGGGGA,-0.19

row,Sequence,relative binding free energy [kcal/mol]
1,ATATGCACGTGGGGAG,-0.2
2,CGTGTCACGTGTGGCG,0.03
3,TATTACACGTGAAGAG,0.41
4,TGTTCCACGTGGAATT,0.27
5,GTTAACACGTGGTTTA,0.1
6,TCCGGCACGTGCTGGT,0
7,GGTTTCACGTGGTCAC,0.34
8,AAATGCACGTGGTGTA,-0.05
9,TTAATCACGTGGACTT,0.16
10,TTTGTCACGTGTTGAA,0.04
11,TGCTGCACGTGTTTTG,-0.02
12,CAGTTCACGTGAGGTT,0.47
13,AGGAGCACGTGTGAGC,0.06
14,TTAGTCACGTGGTCAT,-0.02
15,GTTGTCACGTGTGTTG,0.22
16,CCGTGCACGTGGGTTG,-0.25
17,TGTAGCACGTGAAGAG,0.1
18,CTGGGCACGTGCCGGT,-0.2
19,GTGGACACGTGCCGGT,-0.08
20,AGAGACACGTGGGAGG,-0.12
21,GGTTTCACGTGGGTGG,0.28
22,TCGGTCACGTGGACTT,0.18
23,TAGATCACGTGTCGGG,0.08
24,AAGTTCACGTGTTGTA,0.31
25,TTGTTCACGTGTGCAT,0.35
26,TGAATCACGTGTTTGA,0.29

row,Sequence,relative binding free energy [kcal/mol]
1,ATCTTCACGTGTTGCT,0.27
2,GAGGGCACGTGATTTG,0
3,GGGTGCACGTGGGTTA,-0.1
4,GAGTTCACGTGTGAAT,0.52
5,GTTATCACGTGGGATC,0.22
6,GATAACACGTGGATAT,0.17
7,GCTGTCACGTGCAGGG,0.06
8,GGGATCACGTGGTCAT,0.06
9,ACATGCACGTGGGGGG,-0.27
10,CTTTGCACGTGCGTAG,-0.03
11,ACTGGCACGTGGGATG,-0.3
12,TGACTCACGTGGGTTT,0.15
13,GGTTACACGTGACATG,0.21
14,TGCGGCACGTGCGTAG,-0.18
15,GAGAGCACGTGTAGCG,-0.01
16,GTGGCCACGTGTCTTT,0.12
17,GGTTCCACGTGATGTA,0.16
18,TTTCTCACGTGTTTAT,0.17
19,CGGCGCACGTGTAGTG,-0.16
20,GTTGGCACGTGATGGG,0.12
21,GCGGACACGTGGTGGT,0
22,AAAGGCACGTGGTGAA,-0.22
23,TAGTCCACGTGGTGTG,-0.07
24,GTAAACACGTGTATTG,0.15
25,GTGCGCACGTGGGATT,-0.16
26,CGGGCCACGTGGGGCT,-0.37

row,Sequence,relative binding free energy [kcal/mol]
1,AATGGCACGTGATGGA,-0.07
2,GACTACACGTGTTGGG,0.14
3,AGGTGCACGTGGCAAT,-0.13
4,TTATTCACGTGAGGGA,0.23
5,GATGGCACGTGGTCTG,-0.16
6,AAGTTCACGTGTTAAA,0.27
7,AGAATCACGTGGGTTC,0.1
8,TGTATCACGTGCGGCA,0.05
9,GGATTCACGTGGCTGT,0.17
10,ATTTTCACGTGGAGAT,0.19
11,TGCTGCACGTGGTGTA,-0.28
12,TCAGACACGTGGGGCT,-0.07
13,TTATGCACGTGGGACT,-0.17
14,ATTAGCACGTGAAGAG,0.16
15,TGTGTCACGTGCCGTG,-0.11
16,TGTCGCACGTGAAGTG,0.19
17,TAGTACACGTGTTGAG,0.09
18,TTGGTCACGTGAAAAC,0.53
19,GATTACACGTGTAGTG,0.19
20,GGGGGCACGTGAGTTC,0.11
21,TCATTCACGTGGTTGT,0.44
22,TGATGCACGTGTGGCG,0.12
23,GGGCACACGTGAGGAG,0.3
24,GGCTTCACGTGATGTG,0.38
25,GGGTGCACGTGCGGAG,-0.08
26,ATTGTCACGTGAATTA,0.26

row,Sequence,relative binding free energy [kcal/mol]
1,GTAGACACGTGTTTTG,0.1
2,TGTTTCACGTGCAGGT,0.3
3,CGTTACACGTGGGGTG,-0.01
4,GATATCACGTGGATAG,0.14
5,TATGTCACGTGTGAGT,0.22
6,TGATGCACGTGAGCGT,0.28
7,AAGCGCACGTGCGAGG,0.04
8,TTTTGCACGTGGGAGA,-0.01
9,TGGTTCACGTGCTGGA,0.26
10,CTTTTCACGTGGATAG,0.35
11,GTGATCACGTGAACTT,0.4
12,GGAGTCACGTGACTTG,0.28
13,AACTTCACGTGAGGTG,0.27
14,ATGGGCACGTGTAAGA,0.05
15,TTTTACACGTGGTGTT,0.03
16,GGGAGCACGTGGATTA,-0.03
17,CTGTACACGTGGGTCG,0.01
18,GGTAGCACGTGATATG,0.05
19,GTTGACACGTGCTCTG,0.15
20,TGCTTCACGTGAGTTG,0.32
21,GGGTTCACGTGGGAAA,0.34
22,GAGCGCACGTGGGGGG,-0.18
